The other results are listed elsewhere or left out. Many values rest on one well or one pass, so single values are uncertain.
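Note: cells treated in 1,536-well plates, then fixed and DAPI-stained, with nuclei counted from automated high-throughput microscope images.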

In the experiment the test system is LOXIMVI. Nature of the experiment: cell count relative to DMSO control; melanoma cells; higher = more viable cells. As to conditions: library dose: standard library concentration; 72 h.
`Nc1ncn([C@H]2C[C@H](O)[C@@H](CO)O2)c(=O)n1` [decitabine] + C#Cc1cccc(Nc2ncnc3cc(OCCOC)c(OCCOC)cc23)c1 [erlotinib] (first compound 0.5 µM, partner dose 4 µM) yielded a cell count of 89.6%.
In the case of `CC(=O)O[C@@]12CO[C@@H]1C[C@H](O)[C@@]1(C)C(=O)[C@H](O)C3=C(C)[C@@H](OC(=O)[C@H](O)[C@@H](NC(=O)OC(C)(C)C)c4ccccc4)C[C@@](O)([C@@H](OC(=O)c4ccccc4)[C@H]21)C3(C)C` [Docetaxel] + OCc1c[nH]c2ccccc12 [Indole-3-carbinol] (first compound 0.0005 µM, partner dose 4 µM) it was 49.4%; in that of `CO[C@H]1C[C@@H]2CC[C@@H](C)[C@@](O)(O2)C(=O)C(=O)N2CCCC[C@H]2C(=O)O[C@H]([C@H](C)C[C@@H]2CC[C@@H](OCCO)[C@H](OC)C2)CC(=O)[C@H](C)/C=C(\C)[C@@H](O)[C@@H](OC)C(=O)[C@H](C)C[C@H](C)/C=C/C=C/C=C/1C` [everolimus] + COc1cc(Nc2ncc(F)c(Nc3ccc4c(n3)NC(=O)C(C)(C)O4)n2)cc(OC)c1OC [Tamatinib] (first compound 0.1 µM, partner dose 2 µM), 28.7%; in that of `Nc1ncn([C@H]2C[C@H](O)[C@@H](CO)O2)c(=O)n1` [decitabine] + CN(C)S(=O)(=O)c1ccc2c(c1)/C(=C/c1cc3c([nH]1)CCCC3)C(=O)N2 [SU6656] (first compound 0.5 µM, partner dose 2 µM), 103%.
Turning to `CO[C@H]1C[C@@H]2CC[C@@H](C)[C@@](O)(O2)C(=O)C(=O)N2CCCC[C@H]2C(=O)O[C@H]([C@H](C)C[C@@H]2CC[C@@H](OCCO)[C@H](OC)C2)CC(=O)[C@H](C)/C=C(\C)[C@@H](O)[C@@H](OC)C(=O)[C@H](C)C[C@H](C)/C=C/C=C/C=C/1C` [everolimus] + COc1cc2ncnc(Nc3ccc(Oc4ccccc4)cc3)c2cc1OC [SrcI1] (first compound 0.1 µM, partner dose 10 µM), the cell count turned out to be 79.8%.
On to `CO[C@H]1C[C@@H]2CC[C@@H](C)[C@@](O)(O2)C(=O)C(=O)N2CCCC[C@H]2C(=O)O[C@H]([C@H](C)C[C@@H]2CC[C@@H](OCCO)[C@H](OC)C2)CC(=O)[C@H](C)/C=C(\C)[C@@H](O)[C@@H](OC)C(=O)[C@H](C)C[C@H](C)/C=C/C=C/C=C/1C` [everolimus] + COc1ccc(-c2ccc3c(N4CCOCC4)nc(N4C[C@@H](C)O[C@@H](C)C4)nc3n2)cc1CO [KU0063794] (first compound 0.1 µM, partner dose 0.1 µM), for which the cell count is 64.5%.
In the case of `CC(=O)c1c(C)c2cnc(Nc3ccc(N4CCNCC4)cn3)nc2n(C2CCCC2)c1=O` [palbociclib] + COc1ccc(Cl)c(Nc2nc3ccccc3nc2NS(=O)(=O)c2cccc(NC(=O)C(C)(C)N)c2)c1 [XL147] (first compound 0.2 µM, partner dose 4 µM), the cell count was found to be 118%.
For `CC(=O)c1c(C)c2cnc(Nc3ccc(N4CCNCC4)cn3)nc2n(C2CCCC2)c1=O` [palbociclib] + COc1ccc2c(c1)CCC1C2CCC2(C)C(NCCCCCCN3C(=O)C=CC3=O)CCC12 [U73122] (first compound 0.2 µM, partner dose 2 µM), the cell count amounted to 78%.
`Nc1ccn([C@@H]2O[C@H](CO)[C@@H](O)C2(F)F)c(=O)n1` [gemcitabine] + CO[C@@H]1[C@H](N(C)C(=O)c2ccccc2)C[C@H]2O[C@]1(C)n1c3ccccc3c3c4c(c5c6ccccc6n2c5c31)C(=O)NC4 [Midostaurin] (first compound 0.002 µM, partner dose 0.4 µM) displayed a cell count of 68.2%.
On to `Nc1ccn([C@@H]2O[C@H](CO)[C@@H](O)C2(F)F)c(=O)n1` [gemcitabine] + Cc1nc(Nc2ncc(C(=O)Nc3c(C)cccc3Cl)s2)cc(N2CCN(CCO)CC2)n1 [dasatanib] (first compound 0.002 µM, partner dose 0.02 µM), for which the cell count is 29.3%.
In turn, `CC(=O)O[C@@]12CO[C@@H]1C[C@H](O)[C@@]1(C)C(=O)[C@H](O)C3=C(C)[C@@H](OC(=O)[C@H](O)[C@@H](NC(=O)OC(C)(C)C)c4ccccc4)C[C@@](O)([C@@H](OC(=O)c4ccccc4)[C@H]21)C3(C)C` [Docetaxel] + Cc1cc(Nc2cc(N3CCN(C)CC3)nc(/C=C/c3ccccc3)n2)n[nH]1 [ENMD2076] (first compound 0.0005 µM, partner dose 0.2 µM) yielded a cell count of 52.8%.
The same measure for `CO[C@H]1C[C@@H]2CC[C@@H](C)[C@@](O)(O2)C(=O)C(=O)N2CCCC[C@H]2C(=O)O[C@H]([C@H](C)C[C@@H]2CC[C@@H](OCCO)[C@H](OC)C2)CC(=O)[C@H](C)/C=C(\C)[C@@H](O)[C@@H](OC)C(=O)[C@H](C)C[C@H](C)/C=C/C=C/C=C/1C` [everolimus] + NCC(=O)Nc1ccc(-n2nc(C(F)(F)F)cc2-c2ccc3c(ccc4ccccc43)c2)cc1 [OSU03012] (first compound 0.1 µM, partner dose 5 µM): 86.3%.
Take `CC(=O)c1c(C)c2cnc(Nc3ccc(N4CCNCC4)cn3)nc2n(C2CCCC2)c1=O` [palbociclib] + Oc1cc(-c2nc(-c3ccccc3)[nH]c2-c2ccncc2)ccc1Cl [L779450] (first compound 0.2 µM, partner dose 1 µM): the cell count is 93%.
Regarding `Nc1ccn([C@@H]2O[C@H](CO)[C@@H](O)C2(F)F)c(=O)n1` [gemcitabine] + CC1(C)NC(=O)N(c2ccc([N+](=O)[O-])c(C(F)(F)F)c2)C1=O [nilutamide] (first compound 0.002 µM, partner dose 5 µM), the cell count came out at 75.7%.
The same measure for `CO[C@H]1C[C@@H]2CC[C@@H](C)[C@@](O)(O2)C(=O)C(=O)N2CCCC[C@H]2C(=O)O[C@H]([C@H](C)C[C@@H]2CC[C@@H](OCCO)[C@H](OC)C2)CC(=O)[C@H](C)/C=C(\C)[C@@H](O)[C@@H](OC)C(=O)[C@H](C)C[C@H](C)/C=C/C=C/C=C/1C` [everolimus] + C=CCNC1=C2C[C@@H](C)C[C@H](OC)[C@H](O)[C@@H](C)/C=C(\C)[C@H](OC(N)=O)[C@@H](OC)/C=C\C=C(/C)C(=O)NC(=CC1=O)C2=O [Tanespimycin] (first compound 0.1 µM, partner dose 0.01 µM): 77.8%; for `CC(=O)O[C@@]12CO[C@@H]1C[C@H](O)[C@@]1(C)C(=O)[C@H](O)C3=C(C)[C@@H](OC(=O)[C@H](O)[C@@H](NC(=O)OC(C)(C)C)c4ccccc4)C[C@@](O)([C@@H](OC(=O)c4ccccc4)[C@H]21)C3(C)C` [Docetaxel] + CC1(C)NC(=O)N(c2ccc([N+](=O)[O-])c(C(F)(F)F)c2)C1=O [nilutamide] (first compound 0.0005 µM, partner dose 5 µM): 43.7%; for `CC(=O)c1c(C)c2cnc(Nc3ccc(N4CCNCC4)cn3)nc2n(C2CCCC2)c1=O` [palbociclib] + NCC(=O)Nc1ccc(-n2nc(C(F)(F)F)cc2-c2ccc3c(ccc4ccccc43)c2)cc1 [OSU03012] (first compound 0.2 µM, partner dose 5 µM): 72.1%.
In the case of `Nc1nc(F)nc2c1ncn2[C@@H]1O[C@H](CO)[C@@H](O)[C@@H]1O` [fludarabine] + Nc1cccc2c1CN(C1CCC(=O)NC1=O)C2=O [lenalidomide] (first compound 1 µM, partner dose 5 µM) it was 80.1%; in that of `CC(=O)O[C@@]12CO[C@@H]1C[C@H](O)[C@@]1(C)C(=O)[C@H](O)C3=C(C)[C@@H](OC(=O)[C@H](O)[C@@H](NC(=O)OC(C)(C)C)c4ccccc4)C[C@@](O)([C@@H](OC(=O)c4ccccc4)[C@H]21)C3(C)C` [Docetaxel] + Oc1cc(-c2nc(-c3ccccc3)[nH]c2-c2ccncc2)ccc1Cl [L779450] (first compound 0.0005 µM, partner dose 1 µM), 56.1%.
Take `Nc1ncn([C@H]2C[C@H](O)[C@@H](CO)O2)c(=O)n1` [decitabine] + CC1(C)NC(=O)N(c2ccc([N+](=O)[O-])c(C(F)(F)F)c2)C1=O [nilutamide] (first compound 0.5 µM, partner dose 5 µM): the cell count came to 90%.
In the case of `CC(=O)O[C@@]12CO[C@@H]1C[C@H](O)[C@@]1(C)C(=O)[C@H](O)C3=C(C)[C@@H](OC(=O)[C@H](O)[C@@H](NC(=O)OC(C)(C)C)c4ccccc4)C[C@@](O)([C@@H](OC(=O)c4ccccc4)[C@H]21)C3(C)C` [Docetaxel] + CN(NC(=O)CC(=O)NN(C)C(=S)c1ccccc1)C(=S)c1ccccc1 [STA4783] (first compound 0.0005 µM, partner dose 0.03 µM) it was 44.1%; in that of `CC(=O)O[C@@]12CO[C@@H]1C[C@H](O)[C@@]1(C)C(=O)[C@H](O)C3=C(C)[C@@H](OC(=O)[C@H](O)[C@@H](NC(=O)OC(C)(C)C)c4ccccc4)C[C@@](O)([C@@H](OC(=O)c4ccccc4)[C@H]21)C3(C)C` [Docetaxel] + O=C(O)[C@@H]1[O][Sb](=[O])([O][Sb]2(=[O])[O][C@H]([C@H](O)CO)[C@H](O)[C@H](C(=O)O)[O]2)[O][C@H]([C@H](O)CO)[C@@H]1O [stibogluconate] (first compound 0.0005 µM, partner dose 10 µM), 62.6%.

Source of the values: the supplement of paper PMC4604168 (melanoma cell lines).
